From the supplement of paper PMC8728848
Some of the results follow.

Experiments:
Assay in all cases: glycan array binding signal (z-score within array); higher = stronger binding
Conditions in all cases: glycan notation: IUPAC condensed, linker removed
[1] = molecular target: Fuc(a1-2)[GalNAc(b1-3)]Gal
Outline: (§1)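 Glycan array data came from 3228 arrays in the Consortium for Functional Glycomics database, and only arrays with an available protein sequence were kept. Glycan names were put into IUPAC-condensed notation, and columns mapping to the same glycan were averaged. The binding signal is a within-array Z-score, averaged across arrays of one protein sequence run at different concentrations or buffers and across linkers. A negative Z-score can be read as non-binding.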

Fuc(a1-3)GlcNAc = molecular target: Fuc(a1-3)GlcNAc
Outline: as §1

[2] = molecular target: Fuc(a1-3)[Gal(b1-4)]Glc6S
Outline: as §1

[3] = molecular target: Fuc(a1-3)[Gal(b1-4)]GlcNAc
Outline: as §1

[4] = molecular target: Fuc(a1-3)[Gal(b1-4)]GlcNAc(b1-2)Man
Outline: as §1

[5] = molecular target: Fuc(a1-3)[Gal(b1-4)]GlcNAc(b1-2)Man(a1-3)[Fuc(a1-3)[Gal(b1-4)]GlcNAc(b1-2)Man(a1-6)]Man(b1-4)GlcNAc(b1-4)GlcNAc
Outline: as §1

[6] = molecular target: Fuc(a1-3)[Gal(b1-4)]GlcNAc(b1-2)Man(a1-3)[Fuc(a1-3)[Gal(b1-4)]GlcNAc(b1-2)Man(a1-6)]Man(b1-4)GlcNAc(b1-4)[Fuc(a1-6)]GlcNAc
Outline: as §1

[7] = molecular target: Fuc(a1-3)[Gal(b1-4)]GlcNAc(b1-3)Gal(b1-3)[Fuc(a1-4)]GlcNAc
Outline: as §1

[8] = molecular target: Fuc(a1-3)[Gal(b1-4)]GlcNAc(b1-3)Gal(b1-4)[Fuc(a1-3)]GlcNAc
Outline: as §1

[9] = molecular target: Fuc(a1-3)[Gal(b1-4)]GlcNAc(b1-3)Gal(b1-4)[Fuc(a1-3)]GlcNAc(b1-3)Gal(b1-4)[Fuc(a1-3)]GlcNAc
Outline: as §1

[10] = molecular target: Fuc(a1-3)[Gal(b1-4)]GlcNAc(b1-3)GalNAc
Outline: as §1

[11] = molecular target: Fuc(a1-3)[Gal(b1-4)]GlcNAc(b1-6)GalNAc
Outline: as §1

[12] = molecular target: Fuc(a1-3)[Gal(b1-4)]GlcNAc(b1-6)[Gal(b1-3)GlcNAc(b1-3)]Gal(b1-4)Glc
Outline: as §1

[13] = molecular target: Fuc(a1-3)[Gal(b1-4)]GlcNAc6S
Outline: as §1

[14] = molecular target: Fuc(a1-3)[Gal3S(b1-4)]Glc
Outline: as §1

[15] = molecular target: Fuc(a1-3)[Gal3S(b1-4)]GlcNAc
Outline: as §1

[16] = molecular target: Fuc(a1-3)[Gal3S(b1-4)]GlcNAc6S
Outline: as §1

[17] = molecular target: Fuc(a1-3)[GalNAc(b1-4)]GlcNAc
Outline: as §1

[18] = molecular target: Fuc(a1-3)[GalNAc(b1-4)]GlcNAc6S
Outline: as §1

Fuc(a1-4)GlcNAc = molecular target: Fuc(a1-4)GlcNAc
Outline: as §1

Fuc(b1-3)GlcNAc = molecular target: Fuc(b1-3)GlcNAc
Outline: as §1

Gal(a1-2)Gal = molecular target: Gal(a1-2)Gal
Outline: as §1

Gal(a1-3)Gal = molecular target: Gal(a1-3)Gal
Outline: as §1

Gal(a1-3)Gal(b1-3)GlcNAc = molecular target: Gal(a1-3)Gal(b1-3)GlcNAc
Outline: as §1

[19] = molecular target: Gal(a1-3)Gal(b1-3)GlcNAc(b1-2)Man
Outline: as §1

[20] = molecular target: Gal(a1-3)Gal(b1-3)GlcNAc(b1-2)Man(a1-3)[Gal(a1-3)Gal(b1-3)GlcNAc(b1-2)Man(a1-6)]Man(b1-4)GlcNAc(b1-4)GlcNAc
Outline: as §1

[21] = molecular target: Gal(a1-3)Gal(b1-3)GlcNAc(b1-3)GalNAc
Outline: as §1

[22] = molecular target: Gal(a1-3)Gal(b1-3)GlcNAc(b1-6)GalNAc
Outline: as §1

[23] = molecular target: Gal(a1-3)Gal(b1-3)[Fuc(a1-4)]GlcNAc(b1-2)Man(a1-3)[Gal(a1-3)Gal(b1-3)[Fuc(a1-4)]GlcNAc(b1-2)Man(a1-6)]Man(b1-4)GlcNAc(b1-4)GlcNAc
Outline: as §1

Gal(a1-3)Gal(b1-4)Glc = molecular target: Gal(a1-3)Gal(b1-4)Glc
Outline: as §1

Gal(a1-3)Gal(b1-4)GlcNAc = molecular target: Gal(a1-3)Gal(b1-4)GlcNAc
Outline: as §1

[24] = molecular target: Gal(a1-3)Gal(b1-4)GlcNAc(b1-2)Man
Outline: as §1

[25] = molecular target: Gal(a1-3)Gal(b1-4)GlcNAc(b1-2)Man(a1-3)[Gal(a1-3)Gal(b1-4)GlcNAc(b1-2)Man(a1-6)]Man(b1-4)GlcNAc(b1-4)GlcNAc
Outline: as §1

[26] = molecular target: Gal(a1-3)Gal(b1-4)GlcNAc(b1-3)GalNAc
Outline: as §1

[27] = molecular target: Gal(a1-3)Gal(b1-4)GlcNAc(b1-6)GalNAc
Outline: as §1

[28] = molecular target: Gal(a1-3)Gal(b1-4)[Fuc(a1-3)]GlcNAc
Outline: as §1

[29] = molecular target: Gal(a1-3)Gal(b1-4)[Fuc(a1-3)]GlcNAc(b1-2)Man(a1-3)[Gal(a1-3)Gal(b1-4)[Fuc(a1-3)]GlcNAc(b1-2)Man(a1-6)]Man(b1-4)GlcNAc(b1-4)GlcNAc
Outline: as §1

Gal(a1-3)GalNAc = molecular target: Gal(a1-3)GalNAc
Outline: as §1

[30] = molecular target: Gal(a1-3)[Gal(a1-4)]Gal(b1-4)GlcNAc
Outline: as §1

[31] = molecular target: Gal(a1-4)Gal(b1-3)GlcNAc(b1-2)Man(a1-3)[Gal(a1-4)Gal(b1-3)GlcNAc(b1-2)Man(a1-6)]Man(b1-4)GlcNAc(b1-4)GlcNAc
Outline: as §1

Gal(a1-4)Gal(b1-4)Glc = molecular target: Gal(a1-4)Gal(b1-4)Glc
Outline: as §1

Gal(a1-4)Gal(b1-4)GlcNAc = molecular target: Gal(a1-4)Gal(b1-4)GlcNAc
Outline: as §1

[32] = molecular target: Gal(a1-4)Gal(b1-4)GlcNAc(b1-2)Man(a1-3)[Gal(a1-4)Gal(b1-4)GlcNAc(b1-2)Man(a1-6)]Man(b1-4)GlcNAc(b1-4)GlcNAc
Outline: as §1

[33] = molecular target: Gal(a1-4)Gal(b1-4)GlcNAc(b1-3)Gal(b1-4)Glc
Outline: as §1

Gal(a1-4)GlcNAc = molecular target: Gal(a1-4)GlcNAc
Outline: as §1

B1: CFEM-PPl (Pichia pastoris), F2QPV1 (protein)
chain: AVATPPACLLACAAEVVKESSDCDALNNIQCICENEGSAIHACLESTCPDGLSSTALQSFEDVCESVGTEANLDE
[1]
  glycan array binding signal (z-score): -0.218
Fuc(a1-3)GlcNAc
  glycan array binding signal (z-score): -0.212
[2]
  glycan array binding signal (z-score): -0.098
[3]
  glycan array binding signal (z-score): -0.275
[4]
  glycan array binding signal (z-score): -0.19
[5]
  glycan array binding signal (z-score): -0.205
[6]
  glycan array binding signal (z-score): -0.04
[7]
  glycan array binding signal (z-score): -0.336
[8]
  glycan array binding signal (z-score): -0.128
[9]
  glycan array binding signal (z-score): -0.146
[10]
  glycan array binding signal (z-score): -0.069
[11]
  glycan array binding signal (z-score): 0.273
[12]
  glycan array binding signal (z-score): -0.103
[13]
  glycan array binding signal (z-score): -0.161
[14]
  glycan array binding signal (z-score): -0.058
[15]
  glycan array binding signal (z-score): -0.101
[16]
  glycan array binding signal (z-score): 0.169
[17]
  glycan array binding signal (z-score): -0.14
[18]
  glycan array binding signal (z-score): -0.254
Fuc(a1-4)GlcNAc
  glycan array binding signal (z-score): -0.188
Fuc(b1-3)GlcNAc
  glycan array binding signal (z-score): -0.299
Gal(a1-2)Gal
  glycan array binding signal (z-score): -0.255
Gal(a1-3)Gal
  glycan array binding signal (z-score): -0.17
Gal(a1-3)Gal(b1-3)GlcNAc
  glycan array binding signal (z-score): -0.036
[19]
  glycan array binding signal (z-score): -0.33
[20]
  glycan array binding signal (z-score): -0.051
[21]
  glycan array binding signal (z-score): -0.151
[22]
  glycan array binding signal (z-score): -0.144
[23]
  glycan array binding signal (z-score): -0.153
Gal(a1-3)Gal(b1-4)Glc
  glycan array binding signal (z-score): -0.269
Gal(a1-3)Gal(b1-4)GlcNAc
  glycan array binding signal (z-score): -0.037
[24]
  glycan array binding signal (z-score): -0.166
[25]
  glycan array binding signal (z-score): 0.06
[26]
  glycan array binding signal (z-score): -0.354
[27]
  glycan array binding signal (z-score): -0.328
[28]
  glycan array binding signal (z-score): -0.163
[29]
  glycan array binding signal (z-score): -0.015
Gal(a1-3)GalNAc
  glycan array binding signal (z-score): -0.249
[30]
  glycan array binding signal (z-score): -0.118
[31]
  glycan array binding signal (z-score): -0.23
Gal(a1-4)Gal(b1-4)Glc
  glycan array binding signal (z-score): -0.08
Gal(a1-4)Gal(b1-4)GlcNAc
  glycan array binding signal (z-score): -0.166
[32]
  glycan array binding signal (z-score): -0.055
[33]
  glycan array binding signal (z-score): -0.251
Gal(a1-4)GlcNAc
  glycan array binding signal (z-score): 0.414
